Test results published in paper PMC8316351.
No constants are given. Whether binding was seen depends on the method and setting. Binding seen in cells or lysates may run through a third protein. Some entries that bind do so weakly or less than the wild type. For part of these data: Sequences can lack the tags named with a protein. Values belong to the binder of their own block, whether it stands above or below them.

Chains of the proteins cited; added tags and fusions are not shown. Lines headed by an entry give the natural chain unless they say otherwise; changes in a name come on top. A line that says so, or that is headed by a name, gives the form on record, which may keep a tag or linker. Residues count along the entry.
UniProt A2BH40: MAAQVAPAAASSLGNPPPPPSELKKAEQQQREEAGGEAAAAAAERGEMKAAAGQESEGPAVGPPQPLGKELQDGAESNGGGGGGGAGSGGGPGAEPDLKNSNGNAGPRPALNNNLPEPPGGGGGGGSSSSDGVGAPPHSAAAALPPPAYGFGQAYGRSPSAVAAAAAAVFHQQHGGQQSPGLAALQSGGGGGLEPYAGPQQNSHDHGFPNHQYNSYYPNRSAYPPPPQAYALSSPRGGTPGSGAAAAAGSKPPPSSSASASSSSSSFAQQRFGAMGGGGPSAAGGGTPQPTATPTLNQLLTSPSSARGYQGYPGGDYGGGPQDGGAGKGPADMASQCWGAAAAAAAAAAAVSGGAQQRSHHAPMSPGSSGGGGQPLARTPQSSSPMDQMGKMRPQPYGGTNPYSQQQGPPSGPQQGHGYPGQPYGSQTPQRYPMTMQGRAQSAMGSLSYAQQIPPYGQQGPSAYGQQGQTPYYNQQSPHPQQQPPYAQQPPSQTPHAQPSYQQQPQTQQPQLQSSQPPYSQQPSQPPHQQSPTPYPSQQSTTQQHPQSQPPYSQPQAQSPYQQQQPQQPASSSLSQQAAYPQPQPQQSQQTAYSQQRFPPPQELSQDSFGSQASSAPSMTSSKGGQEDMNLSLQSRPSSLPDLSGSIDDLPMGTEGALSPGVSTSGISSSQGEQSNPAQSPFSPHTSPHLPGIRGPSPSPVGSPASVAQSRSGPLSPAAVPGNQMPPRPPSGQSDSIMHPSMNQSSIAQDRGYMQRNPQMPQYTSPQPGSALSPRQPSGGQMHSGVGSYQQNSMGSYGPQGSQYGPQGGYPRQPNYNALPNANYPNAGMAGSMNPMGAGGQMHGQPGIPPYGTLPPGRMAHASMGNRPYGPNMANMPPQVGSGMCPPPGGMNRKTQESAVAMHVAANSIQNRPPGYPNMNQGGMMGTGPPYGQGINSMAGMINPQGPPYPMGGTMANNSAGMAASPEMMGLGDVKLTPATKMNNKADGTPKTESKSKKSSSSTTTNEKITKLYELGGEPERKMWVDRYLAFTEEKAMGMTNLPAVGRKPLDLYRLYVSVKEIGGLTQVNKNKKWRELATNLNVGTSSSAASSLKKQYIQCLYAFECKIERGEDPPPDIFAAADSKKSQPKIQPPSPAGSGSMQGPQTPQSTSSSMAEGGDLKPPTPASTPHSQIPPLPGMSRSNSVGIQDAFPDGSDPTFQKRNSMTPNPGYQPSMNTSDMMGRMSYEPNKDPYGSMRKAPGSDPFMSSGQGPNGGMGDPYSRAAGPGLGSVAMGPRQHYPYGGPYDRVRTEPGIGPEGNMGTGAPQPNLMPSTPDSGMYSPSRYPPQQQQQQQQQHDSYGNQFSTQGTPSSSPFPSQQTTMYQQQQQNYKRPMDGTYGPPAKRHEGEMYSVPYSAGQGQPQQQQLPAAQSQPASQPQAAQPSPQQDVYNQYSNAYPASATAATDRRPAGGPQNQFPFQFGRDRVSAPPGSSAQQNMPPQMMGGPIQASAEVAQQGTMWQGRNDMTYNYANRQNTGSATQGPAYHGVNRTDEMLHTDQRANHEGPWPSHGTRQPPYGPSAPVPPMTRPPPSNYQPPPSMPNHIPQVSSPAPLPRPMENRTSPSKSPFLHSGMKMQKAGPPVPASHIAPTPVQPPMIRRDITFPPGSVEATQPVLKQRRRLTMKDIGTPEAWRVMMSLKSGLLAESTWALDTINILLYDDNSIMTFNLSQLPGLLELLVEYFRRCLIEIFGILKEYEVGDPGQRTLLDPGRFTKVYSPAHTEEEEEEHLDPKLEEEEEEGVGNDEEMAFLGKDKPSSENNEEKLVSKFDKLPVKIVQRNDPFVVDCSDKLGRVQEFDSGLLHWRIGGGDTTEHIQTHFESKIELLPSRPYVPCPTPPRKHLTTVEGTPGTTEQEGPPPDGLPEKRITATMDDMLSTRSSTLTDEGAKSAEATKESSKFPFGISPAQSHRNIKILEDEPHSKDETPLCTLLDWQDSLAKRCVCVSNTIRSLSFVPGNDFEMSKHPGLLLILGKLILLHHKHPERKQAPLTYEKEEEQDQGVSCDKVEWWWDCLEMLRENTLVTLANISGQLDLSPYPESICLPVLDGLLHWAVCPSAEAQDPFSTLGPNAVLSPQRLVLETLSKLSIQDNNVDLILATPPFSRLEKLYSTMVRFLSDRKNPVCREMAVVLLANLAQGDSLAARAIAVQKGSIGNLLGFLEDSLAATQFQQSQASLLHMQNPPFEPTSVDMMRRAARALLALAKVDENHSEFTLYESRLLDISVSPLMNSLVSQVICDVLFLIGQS
UniProt Q8BVE8: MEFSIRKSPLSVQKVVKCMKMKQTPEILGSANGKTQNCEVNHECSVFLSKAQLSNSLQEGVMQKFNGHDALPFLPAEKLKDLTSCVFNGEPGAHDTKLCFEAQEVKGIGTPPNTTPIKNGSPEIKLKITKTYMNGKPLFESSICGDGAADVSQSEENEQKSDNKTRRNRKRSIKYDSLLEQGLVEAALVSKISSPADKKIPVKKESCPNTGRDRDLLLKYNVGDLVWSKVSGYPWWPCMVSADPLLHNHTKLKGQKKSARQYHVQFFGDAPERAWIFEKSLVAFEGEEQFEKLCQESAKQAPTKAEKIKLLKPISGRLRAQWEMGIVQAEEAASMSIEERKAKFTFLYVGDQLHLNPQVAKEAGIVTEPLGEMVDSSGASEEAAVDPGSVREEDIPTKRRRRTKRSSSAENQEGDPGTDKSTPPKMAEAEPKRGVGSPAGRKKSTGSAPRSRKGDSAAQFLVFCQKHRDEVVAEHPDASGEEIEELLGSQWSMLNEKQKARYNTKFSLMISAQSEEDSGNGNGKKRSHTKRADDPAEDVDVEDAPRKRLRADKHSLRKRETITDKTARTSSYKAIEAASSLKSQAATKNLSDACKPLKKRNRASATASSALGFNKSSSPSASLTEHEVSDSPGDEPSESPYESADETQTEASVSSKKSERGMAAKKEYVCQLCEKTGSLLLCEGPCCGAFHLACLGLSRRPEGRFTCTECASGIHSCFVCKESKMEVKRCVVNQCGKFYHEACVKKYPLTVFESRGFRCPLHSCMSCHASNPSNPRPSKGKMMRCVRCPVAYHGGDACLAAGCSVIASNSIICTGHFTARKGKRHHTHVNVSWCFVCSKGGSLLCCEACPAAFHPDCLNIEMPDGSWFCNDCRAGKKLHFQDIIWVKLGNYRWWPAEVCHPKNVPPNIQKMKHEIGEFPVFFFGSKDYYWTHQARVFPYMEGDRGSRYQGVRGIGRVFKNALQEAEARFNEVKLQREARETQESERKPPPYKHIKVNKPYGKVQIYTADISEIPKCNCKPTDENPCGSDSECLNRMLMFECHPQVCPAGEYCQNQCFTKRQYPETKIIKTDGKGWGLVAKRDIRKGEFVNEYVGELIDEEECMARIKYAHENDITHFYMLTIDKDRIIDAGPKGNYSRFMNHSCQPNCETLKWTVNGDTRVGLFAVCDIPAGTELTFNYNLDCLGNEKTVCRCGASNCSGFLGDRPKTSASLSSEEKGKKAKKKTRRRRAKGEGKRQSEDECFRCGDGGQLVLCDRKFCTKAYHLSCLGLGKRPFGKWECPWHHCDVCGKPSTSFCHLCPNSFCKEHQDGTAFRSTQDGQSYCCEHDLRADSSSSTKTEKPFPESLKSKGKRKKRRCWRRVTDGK
FLAG-tagged NSD2 C-terminal (629-1367aa): residues 629-1365 of Q8BVE8

Assays:
[1] = target: V5-tagged ARID1A (PEF1a-V5-Arid1a) (UniProt A2BH40); assay: co-IP; tagged proteins co-transfected in HEK293T cells
[2] = target: ARID1A (AT-rich interacting domain-containing protein 1A), endogenous (mouse (endogenous in BMDMs)) (UniProt A2BH40); assay: co-IP
[3] = target: FLAG-tagged NSD2, wild type (UniProt Q8BVE8); assay: co-IP; tagged proteins co-transfected in HEK293T cells
[4] = target: FLAG-tagged NSD2 C-terminal (629-1367aa) (UniProt Q8BVE8); assay: as above

- binding [1]: no binding
B1: Myc-tagged IRF3 with the DNA binding domain (DBD; 1-140aa) deleted (domain or fragment, UniProt P70671 141-419)
chain: KLFDGLILGPLKDEGSSDLAIVSDPSQQLPSPNVNNFLNPAPQENPLKQLLAEEQWEFEVTAFYRGRQVFQQTLFCPGGLRLVGSTADMTLPWQPVTLPDPEGFLTDKLVKEYVGQVLKGLGNGLALWQAGQCLWAQRLGHSHAFWALGEELLPDSGRGPDGEVHKDKDGAVFDLRPFVADLIAFMEGSGHSPRYTLWFCMGEMWPQDQPWVKRLVMVKVVPTCLKELLEMAREGGASSLKTVDLHISNSQPISLTSDQYKAYLQDLVEDMDFQATGNI

- binding [1]: no binding
B2: Myc-tagged IRF3 with the IRF association domain (IAD; 198-374 aa) deleted (protein, UniProt P70671)
chain: METPKPRILPWLVSQLDLGQLEGVAWLDESRTRFRIPWKHGLRQDAQMADFGIFQAWAEASGAYTPGKDKPDVSTWKRNFRSALNRKEVLRLAADNSKDPYDPHKVYEFVTPGARDFVHLGASPDTNGKSSLPHSQENLPKLFDGLILGPLKDEGSSDLAIVSDPSQQLPSPNVNNFLNPAPQENPLKQLLAEEQWEGGASSLKTVDLHISNSQPISLTSDQYKAYLQDLVEDMDFQATGNI

- binding [2]: binds
B3: endogenous phosphorylated IRF3 (protein, UniProt P70671 1-419)
chain: METPKPRILPWLVSQLDLGQLEGVAWLDESRTRFRIPWKHGLRQDAQMADFGIFQAWAEASGAYTPGKDKPDVSTWKRNFRSALNRKEVLRLAADNSKDPYDPHKVYEFVTPGARDFVHLGASPDTNGKSSLPHSQENLPKLFDGLILGPLKDEGSSDLAIVSDPSQQLPSPNVNNFLNPAPQENPLKQLLAEEQWEFEVTAFYRGRQVFQQTLFCPGGLRLVGSTADMTLPWQPVTLPDPEGFLTDKLVKEYVGQVLKGLGNGLALWQAGQCLWAQRLGHSHAFWALGEELLPDSGRGPDGEVHKDKDGAVFDLRPFVADLIAFMEGSGHSPRYTLWFCMGEMWPQDQPWVKRLVMVKVVPTCLKELLEMAREGGASSLKTVDLHISNSQPISLTSDQYKAYLQDLVEDMDFQATGNI
modifications: phosphorylated (sites not given)

- binding [3]: binds
- binding [4]: binds
- binding [1]: binds
B4: Myc-tagged IRF3, wild type (protein, UniProt P70671 1-419)
chain: B3 chain
